Assay results reported in PubChem BioAssay AID686978 (National Center for Advancing Translational Sciences (NCATS), 2013).
Where “and” joins values, the source holds several entries; their conditions need not be identical. Equal entries are not always repeated. Hit rate of the full screen: of about 420,000 compounds, about 64,000 (15%) were called active. Inconclusive results, whose numbers are uncertain, are shown with a selection of clear calls. The call rests on the fitted dose curve; in most records, active means well fitted inhibition curve with a large enough effect; inconclusive means small, poorly fitted or top-dose-only effect; inactive means flat fitted curve, though single readings scatter. Potencies beside an inconclusive call are fits to weak or partial responses and may not hold up.
On the % scale 0 is the no-effect control and ±100 the full control effect; potency means the concentration at half of the fitted maximal effect; tags describe the fitted curve by direction and shape.

Assay: qHTS for Inhibitors of human tyrosyl-DNA phosphodiesterase 1 (TDP1): qHTS in cells in absence of CPT; further: nearly all actives have a fitted effect of over 55% in size
Conditions: DT40 Tdp1-/- hTDP1 cells, no CPT, ATP luminescence, 48 h; activity change, negative = growth inhibition: at 46.2 µM (top of the series)
Outline: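 Growth of hTDP1-complemented DT40 Tdp1-knockout cells is measured by ATP luminescence after at least 48 hr compound exposure at 37 °C, with DMSO substituting for the 20 nM CPT used in the parallel screen.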
In the case of COc1ccc(N2CCN(C(=O)COC(=O)CCc3ccccc3)CC2)cc1, the Potency is reported as “inactive”.
With COc1ccc(-c2nnc3ccc(SC(C)C)nn23)cc1OC the Potency was active: 12.6 µM.
In the case of CCCN1CCN(C(=O)Cn2c(-c3cccs3)cc3ccccc32)CC1, the Potency is reported as inconclusive: 20.6 µM [inhibitor, partial curve, poor fit].
In the case of CC(C)=CCC(C)(C)/C=N/NC(N)=O, the Potency is reported as “inactive”.
In the case of COCCCNC(=O)C1CCN(C(=O)c2cnn(-c3ccccc3)c2-n2cccc2)CC1, the Potency is reported as “inactive”.
With Cc1c(C)[n+](=O)c(-c2ccco2)c(C)n1[O-] the Potency was “inactive”.
In the case of CC(=O)Nc1ccc(/C=N/NC(=O)c2cc(-c3ccco3)nc3ccccc23)cc1, the Potency is reported as inconclusive: 2.59 µM [inhibitor, full curve].
With C=CCNC(=S)Nc1ccc(N(C)C)cc1 the Potency was inconclusive: 29.1 µM [inhibitor, single point].
For Cc1cc(F)ccc1N1CCC(N2CCN(C(C)C)C(CCO)C2)CC1 (stereo not drawn), the Potency was active: 23.1 µM.
In the case of O=C(NCCS(=O)(=O)N1CCN(c2ccccc2F)CC1)c1cccc(Br)c1, the Potency is reported as “inactive”.
For CC(C)(C)c1ccc(C(=O)Nc2ccccc2Cl)cc1, the Potency was inconclusive: 29.1 µM [inhibitor, single point].
With COc1ccc(OC)c(C(=O)NC(CC(N)=O)c2ccc(N3CCCCCC3)c([N+](=O)[O-])c2)c1 (stereo not drawn) the Potency was inconclusive: 20.6 µM [inhibitor, single point].
For Cc1cc(C(=O)NCC(=O)OC(C)C(=O)N2CCOCC2)ccc1[N+](=O)[O-] (stereo not drawn), the Potency was “inactive”.
For Cc1cccc(NC(=O)N2CCN(C(=O)c3nsc4ccccc34)CC2)c1C, the Potency was inconclusive: 29.1 µM [inhibitor, single point].
In the case of COc1ccc(S(=O)(=O)NCc2ccccn2)c(C)c1C, the activity change, negative = growth inhibition is reported as inconclusive: -38.5% [inhibitor].
For CCOc1ccccc1CNC(=O)c1ccc(N2Cc3ccccc3Oc3ncccc32)s1, the Potency was active: 14.6 µM.
For CCN(CC)S(=O)(=O)c1ccc(NC(=O)Nc2cccc(C(F)(F)F)c2)cc1, the Potency was active: 2.59 µM.
For CC1CCCN(C(=O)COC(=O)c2cc(-c3cccs3)nn2-c2ccccc2)C1 (stereo not drawn), the Potency was “inactive”.
With C=CCn1c(SCC(=O)NCc2ccco2)nc2sc3c(c2c1=O)CCC3 the Potency was inconclusive: 32.6 µM [inhibitor, single point].
In the case of Cc1ccc(N/C=C/c2onc(C)c2[N+](=O)[O-])cc1, the Potency is reported as inconclusive: 29.1 µM [inhibitor, single point].
In the case of CCC1(C)CC(c2nc(-c3ccc(OC)cc3)cs2)CCS1 (stereo not drawn), the Potency is reported as inconclusive: 32.6 µM [inhibitor, single point].
In the case of Cc1ccc(CNC(=O)c2cccn2-c2nnc(N3CCCC3)s2)cc1, the Potency is reported as inconclusive: 25.9 µM [inhibitor, single point].
For Cc1ccc2c(CC(=O)Nc3ccc(S(=O)(=O)N4CCCCC4C)cc3)coc2c1 (stereo not drawn), the Potency was inconclusive: 23.1 µM [inhibitor, single point].
With CN(c1ccccc1)S(=O)(=O)c1cccc(C(=O)Nc2cccc(C(=O)NC3CC3)c2)c1 the Potency was inconclusive: 29.1 µM [inhibitor, single point].
In the case of Cc1cc(=O)n2c3ccccc3n(C)c2n1, the Potency is reported as “inactive”.
With CCOC(=O)c1cc2c(ccn2C)n1Cc1ccccc1Cl the Potency was inconclusive: 25.9 µM [inhibitor, single point].
With COc1cccc(NC(=O)CN2C(=O)CSc3ccc(S(=O)(=O)N4CCCC4)cc32)c1 the Potency was inconclusive: 16.4 µM [inhibitor, single point].
In the case of CCOC(=O)c1cc2cc(OC)ccc2n1C1CCN(CCc2ccccc2)CC1, the Potency is reported as inconclusive: 23.1 µM [inhibitor, single point].
In the case of COc1ccc(C(=O)COC(=O)CCNS(=O)(=O)c2ccccc2)c(OC)c1, the Potency is reported as “inactive”.
For CC(=O)Nc1ccc(S(=O)(=O)NCC2CCC(C(=O)N3CC(C)CC(C)C3)CC2)cc1 (stereo not drawn), the Potency was inconclusive: 16.4 µM [inhibitor, single point].
For N#CCOc1ccccc1CNC[C@H]1O[C@@H](n2cnc3c(=O)[nH]c(N)nc32)[C@H](O)[C@@H]1O, the Potency was “inactive”.
For Clc1ccc2c(c1)-c1c(cnc3cc(-c4ccccc4)nn13)CO2, the Potency was “inactive”.
With Cc1ccc(NC(=O)CN(C)S(=O)(=O)c2cccc3cccnc23)cc1 the activity change, negative = growth inhibition was inconclusive: -33.1% [inhibitor].
For COc1ccc(C2/C=C\CN(C(=O)c3ccc(C)cc3)[C@H](Cc3ccccc3)C(=O)N2Cc2ccc(F)cc2)cc1 (stereo partly drawn), the Potency was active: 5.8 µM.
For CCc1ccccc1Nc1nc(N)nc(COC(=O)C2CCN(C(=O)c3ccc(F)cc3)CC2)n1, the Potency was inconclusive: 18.4 µM [inhibitor, single point].
For CC[N+]1=CN(c2ccccc2)C(C)=CC1(C)C, the Potency was inconclusive: 25.9 µM [inhibitor, single point].
For C=CCSc1nc(=O)n2ccc(C)cc2n1, the Potency was inconclusive: 20.6 µM [inhibitor, single point].
In the case of CCN(CC)C(=O)COc1ccc(/C=N/NC(=O)c2cc(-c3ccccc3OC)nc3ccccc23)cc1OC, the Potency is reported as inconclusive: 6.51 µM [inhibitor, full curve].
In the case of Cc1ccc(-c2onc3ccc(C(=O)/C=C/N(C)C)cc23)cc1, the Potency is reported as inconclusive: 18.4 µM [inhibitor, partial curve].
For CS(=O)(=O)Nc1cccc(C2=NN(C(=O)CCCC(=O)O)C(c3cccs3)C2)c1 (stereo not drawn), the Potency was “inactive”.
In the case of CCOc1ccc(C(=O)CCC(=O)N(CC)CC(=O)NCc2cccs2)cc1, the Potency is reported as inconclusive: 23.1 µM [inhibitor, single point].
For CCOc1ccc(NC(=O)C2(c3ccc(OC)c(OC)c3)CCCC2)cc1, the Potency was inconclusive: 5.8 µM [inhibitor, partial curve].
In the case of Nc1c(Br)cc(C=O)cc1Br, the Potency is reported as inconclusive: 22.4 µM [inhibitor, single point].
In the case of COc1cc(-c2cc(C)c3c(OC)ccc(OC)c3n2)cc2c1OCCN(C(=O)CCn1ccc(C)n1)C2, the Potency is reported as inconclusive: 20.6 µM [inhibitor, single point].
With O=C(Cn1cnc2c(nnn2-c2cccc(Cl)c2)c1=O)N1CCOCC1 the Potency was “inactive”.
For Cc1[nH]c2ccccc2c1C(=O)COC(=O)CCS(=O)(=O)c1ccccc1Cl, the Potency was inconclusive: 23.1 µM [inhibitor, single point].
For Cn1c(=O)[nH]c(=O)c2c1nc(CN1CCN(c3ccccc3F)CC1)n2CCc1ccccc1, the Potency was inconclusive: 29.1 µM [inhibitor, single point].
In the case of O=C(CCC1CCCN(C(=O)c2ccc3cc[nH]c3c2)C1)N1CCN(c2ccccn2)CC1 (stereo not drawn), the Potency is reported as inconclusive: 23.1 µM [inhibitor, partial curve].
In the case of Cc1ccc(-n2c(C)cc(/C=c3/sc4nc5ccccc5n4c3=O)c2C)cc1, the Potency is reported as active: 9.2 µM.
In the case of CC(C)(C)NS(=O)(=O)c1ccc(NC(=O)C2CCCCC2)cc1, the Potency is reported as inconclusive: 23.1 µM [inhibitor, partial curve, poor fit].
With COc1ccc(Nc2nnc(-c3ccccc3)c3ccccc23)cc1C(=O)N1CCCCC1 the Potency was “inactive”.
With O=C(c1ccco1)N1CCC[C@@]2(CCN(Cc3nccs3)C2)C1 the Potency was “inactive”.
With O=S(=O)(O)c1ccc2c(N=Nc3ccc(S(=O)(=O)O)c4ccccc34)c(O)c(S(=O)(=O)O)cc2c1 the Potency was inconclusive: 15.8 µM [inhibitor, partial curve] and inconclusive: 15 µM [inhibitor, partial curve, poor fit].
In the case of CCOc1cc2[nH]c(=O)n(CCCCC(=O)N3CCN(c4ccc(OC)cc4)CC3)c(=O)c2cc1OCC, the Potency is reported as active: 9.2 µM.
In the case of CCN(CC)S(=O)(=O)c1cc([N+](=O)[O-])ccc1NNC(=O)Nc1ccccc1OC, the Potency is reported as inconclusive: 29.1 µM [inhibitor, single point].
In the case of CCOc1ccc(C(=O)Nc2nnc(S(=O)(=O)Nc3ccccc3)s2)cc1, the Potency is reported as inconclusive: 25.9 µM [inhibitor, single point].
With CCCCN(C=O)c1c(CC)nc2c(OCc3ccc(S(C)(=O)=O)cc3)cccn12 the Potency was inconclusive: 18.4 µM [inhibitor, partial curve, poor fit].
In the case of CCOc1ccc2nc(N3CCC(C(=O)Nc4ccccc4CC)CC3)sc2c1, the Potency is reported as active: 23.1 µM.
In the case of CC1CCCC(C)N1C(=O)COc1ccc(C(=O)Nc2ccccc2N2CCOCC2)cc1 (stereo not drawn), the Potency is reported as inconclusive: 18.4 µM [inhibitor, single point].
For COc1ccc(NC(=O)C[C@@H]2C(=O)N(c3ccc(OC)cc3)CC2(C)C)cc1, the activity change, negative = growth inhibition was inconclusive: -32.9% [inhibitor].
With CCN(c1ccccc1)S(=O)(=O)c1ccc(NC(=S)NC(=O)c2cccs2)cc1 the Potency was active: 23.1 µM.
For CCc1ccc(-c2nc(CS(=O)CC(=O)NCc3cccnc3)c(C)o2)cc1 (stereo not drawn), the Potency was inconclusive: 32.6 µM [inhibitor, single point].
With CC(=O)c1cnc(SCC(=O)O)nc1C the Potency was “inactive”.
For O=C(Nc1cccc(F)c1)OC(CN1CCCCC1)C(F)(F)F (stereo not drawn), the Potency was inconclusive: 29.1 µM [inhibitor, single point].
In the case of OC(c1ccc(F)c(F)c1)c1nc(-c2cccc(C(F)(F)F)c2)cs1 (stereo not drawn), the Potency is reported as inconclusive: 14.6 µM [inhibitor, single point].
With CN(C)S(=O)(=O)c1cccc(C(=O)Nc2ccc(S(=O)(=O)N3CCCC3)cc2)c1 the Potency was inconclusive: 13 µM [inhibitor, partial curve].
In the case of Cc1ccc(CCNc2ncnc3onc(-c4ccc(F)cc4)c23)cc1, the Potency is reported as “inactive”.
In the case of c1ccc(-c2nc(CSc3nnnn3-c3ccccc3)cs2)cc1, the Potency is reported as inconclusive: 29.1 µM [inhibitor, single point].
